From the supplement of paper PMC3334620
Whole data set: some 33,000 sequences, median “E-score (-0.5 to 0.5)” near -0.035, cut for the highest 2% near 0.34. The list shows a part of the results.

Target: T1, Mot3 (UniProt P54785)
T1 sequence: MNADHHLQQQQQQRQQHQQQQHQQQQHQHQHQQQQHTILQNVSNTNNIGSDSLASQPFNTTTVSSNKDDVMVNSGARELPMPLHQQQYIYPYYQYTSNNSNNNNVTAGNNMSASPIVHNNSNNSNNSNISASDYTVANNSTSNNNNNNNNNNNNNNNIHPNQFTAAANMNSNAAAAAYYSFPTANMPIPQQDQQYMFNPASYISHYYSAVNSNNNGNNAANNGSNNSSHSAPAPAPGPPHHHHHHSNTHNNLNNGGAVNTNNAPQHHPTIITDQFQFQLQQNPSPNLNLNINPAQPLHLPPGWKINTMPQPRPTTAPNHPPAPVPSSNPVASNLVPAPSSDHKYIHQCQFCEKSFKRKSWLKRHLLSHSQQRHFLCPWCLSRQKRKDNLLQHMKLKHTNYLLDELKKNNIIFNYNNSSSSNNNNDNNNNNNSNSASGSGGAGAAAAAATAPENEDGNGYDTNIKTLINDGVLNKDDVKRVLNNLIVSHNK
Test: PBM E-score (8-mer binding enrichment) (E-score (-0.5 to 0.5)); higher = stronger / more preferred TF binding; most listed sequences are background and not binding sites
Conditions: protein concentration: 200 nM; construct: GST-full length
In short: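 Universal all-10-mer Agilent arrays, fresh or stripped once, were converted to double-stranded form by primer extension. GST-tagged yeast transcription factors from PURExpress in vitro transcription/translation, full-length or DNA-binding domain only, were applied at about 100-200 nM and detected with fluorescent anti-GST. After masliner normalisation, the Universal PBM Analysis Suite scored each ungapped eight-base word together with its reverse complement by E-score.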

| Sequence | PBM E-score |
| --- | --- |
| ATACAAGA | 0.172 |
| GGATCTAC | 0.0501 |
| TCGAAAGA | -0.101 |
| CCCAATGA | -0.0677 |
| AAGGTGCT | 0.0153 |
| GACTAGGC | 0.116 |
| CTAAGCAC | -0.015 |
| GTCAGGAA | 0.277 |
| CCACCTTA | -0.034 |
| CAGTGTCC | 0.00077 |
| ACGCTGAT | 0.214 |
| AACCGGCT | -0.284 |
| GTAAAATA | 0.162 |
| ATAGCTTG | -0.109 |
| CGATATCC | -0.178 |
| AATGAGCG | 0.112 |
| GCTTAAAA | -0.0363 |
| CATTTCCA | 0.13 |
| ATACTGCC | -0.204 |
| CGTATAAC | 0.172 |
| ACGGCGTC | -0.0613 |
| AATTGGTG | -0.108 |
| GCGTCCAC | -0.291 |
| GGACATAA | -0.017 |

| Sequence | PBM E-score |
| --- | --- |
| AGCACCCC | -0.292 |
| CTCCAGAA | -0.0339 |
| ACATCTAT | 0.0997 |
| AACAAGTC | 0.166 |
| AAGACATA | 0.0725 |
| CTCGGGGA | -0.167 |
| ATGGGGCA | -0.2 |
| CAACTGAA | 0.0709 |
| GGAGATCA | -0.0975 |
| ACCCAGGC | 0.136 |
| CCGCCGAA | -0.0458 |
| CTCGCAAG | -0.105 |
| AGTATTAA | 0.191 |
| GTGAGTTA | 0.0127 |
| AGTGATGA | 0.0151 |
| CGCGGGAA | 0.0452 |
| ATAATAAG | 0.0942 |
| TAGTAAGA | -0.00784 |
| CTCGCCCC | -0.205 |
| CAACACCC | -0.0891 |
| GTGTTGTA | 0.283 |
| AGGCTAAC | 0.0644 |
| CGGCGGTC | -0.192 |
| CCTCACTC | -0.167 |

| Sequence | PBM E-score |
| --- | --- |
| GGGCCCCC | -0.376 |
| TGAGCGAA | -0.125 |
| AACCCCGA | -0.00295 |
| CCGTAAGA | -0.115 |
| CTAGAACA | 0.0902 |
| ACCTTAGC | -0.0753 |
| CTGGCTGA | -0.368 |
| GTGTAGTA | 0.292 |
| AACGTCGT | -0.00675 |
| AGGGTCAT | 0.0278 |
| AGCGTACG | -0.127 |
| GAAAGCAA | 0.134 |
| ACACGATA | 0.345 |
| GACCTAAA | -0.086 |
| AGGTAGGA | 0.026 |
| CTAGGGAG | -0.18 |
| TGGTCCAA | -0.152 |
| CATTCGCA | -0.0349 |
| GAATGTGA | -0.0391 |
| TCACCTAA | -0.0781 |
| AGTTGGAA | -0.213 |
| AATCGGTA | 0.142 |
| AATCGCGT | 0.194 |
| CTCCACTA | -0.00841 |

| Sequence | PBM E-score |
| --- | --- |
| ATCAGTTC | -0.222 |
| AGATCCAG | -0.11 |
| GAGAGCTC | -0.31 |
| ATTAATAG | 0.192 |
| AGTCGCAA | 0.0417 |
| CTCAAAGC | -0.205 |
| AAGGCCCT | 0.0177 |
| CCCACCAA | -0.125 |
| CACCAGTA | -0.0226 |
| GCAGTGGC | -0.3 |
| AGAGACGA | -0.246 |
| ACCGTTCC | 0.101 |
| CCGTGAGC | -0.144 |
| ATAGGGGC | -0.106 |
| ACTACGCG | 0.289 |
| AGACCACA | -0.0763 |
| CCGAATCG | -0.149 |
| AGAAGAGC | -0.0798 |
| GAACTGGC | -0.128 |
| AATTATGT | 0.301 |
| AAACGTCG | -0.109 |
| CGAAAAAC | 0.0519 |
